From the supplement of paper PMC10126150
Values marked as one replicate rest on one cluster of the flow cell; about a third of the high ones do not repeat.
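Also: ATP exposure 15 min at 22 °C before imaging.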

Each sequence was assayed on ATP (assay: switch fluorescence ratio, 500 uM ATP over buffer (Cy3 cluster intensity, sum of 5 cycles each) (fold (ratio)); higher = stronger signal-on switching upon ATP binding; sequences stand for … in TCGTCGGCAGCGTCAGATGTGTATAAGAGACAGTTTTTTTTTTTTTTTTTTTTTTTTT…TC). Conditions: aptamer strand: ATP DNA aptamer (quencher-CACCTGGGGGAGTATTGCGGAGGAAGG + anchor), 100 nM annealed; ATP concentration: 500 uM; one replicate.
How it was run: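 Cy3-labelled switching-strand clusters on a modified Illumina MiSeq flow-cell were annealed to 100 nM quencher-labelled ATP aptamer, imaged in selection buffer, then imaged after 15 min with 500 uM ATP at 22 °C. Five buffer/ATP cycles ran, with NaOH stripping and re-annealing between them. The fluorescence ratio is summed target-cycle over summed buffer-cycle Cy3 intensity per cluster, averaged per switch-domain sequence. Clusters outside 100-1000 RFU were excluded.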
AGATAAAGGA showed a switch fluorescence ratio of 0.972. AGATAACCTG gave a switch fluorescence ratio of 1.03. With AGATAATGTA the switch fluorescence ratio was 0.986. Sequence AGATAATTTA has a switch fluorescence ratio of 0.976. AGATACAACC was tested, and the switch fluorescence ratio was 1.12. In the case of AGATACATCG, the switch fluorescence ratio is reported as 1.05. AGATACGATC showed a switch fluorescence ratio of 1.02. Sequence AGATAGCAGC has a switch fluorescence ratio of 1.03. Work on AGATAGCGCG yielded a switch fluorescence ratio of 1.03. AGATAGGGG was tested, and the switch fluorescence ratio was 1.01. AGATAGTGAG showed a switch fluorescence ratio of 0.968. Sequence AGATATCGAC has a switch fluorescence ratio of 1.06. AGATATTTAC showed a switch fluorescence ratio of 0.975. AGATCCCCAT gave a switch fluorescence ratio of 1.03. AGATCCGTAT gave a switch fluorescence ratio of 0.984. Sequence AGATCCTAA has a switch fluorescence ratio of 0.975. AGATCCTACA showed a switch fluorescence ratio of 0.964. AGATCGACCT showed a switch fluorescence ratio of 1.21. Sequence AGATCGGAGG has a switch fluorescence ratio of 1.01. In the case of AGATCGTTC, the switch fluorescence ratio is reported as 0.965. AGATCTCCA was tested, and the switch fluorescence ratio was 0.969. Sequence AGATGAATCT has a switch fluorescence ratio of 0.985. Sequence AGATGAGGCT has a switch fluorescence ratio of 1.01. With AGATGCAGGC the switch fluorescence ratio was 1.02. AGATGCATTT showed a switch fluorescence ratio of 0.953. Sequence AGATGCCGAG has a switch fluorescence ratio of 1.04. Work on AGATGCGTGA yielded a switch fluorescence ratio of 0.945. AGATGTCAGG gave a switch fluorescence ratio of 0.999. For AGATGTCCAC, the switch fluorescence ratio was 1.01. AGATTAGTG gave a switch fluorescence ratio of 0.984. For AGATTCCACG, the switch fluorescence ratio was 1.1. For AGATTCGGAT, the switch fluorescence ratio was 1.02. AGATTCTGGA showed a switch fluorescence ratio of 0.976. For AGATTGATGA, the switch fluorescence ratio was 1.02. In the case of AGATTGGAGT, the switch fluorescence ratio is reported as 1.03. In the case of AGATTGGCTG, the switch fluorescence ratio is reported as 0.979. With AGATTGGGCC the switch fluorescence ratio was 1. AGATTTATAC gave a switch fluorescence ratio of 1.05. Sequence AGATTTCTAA has a switch fluorescence ratio of 0.96. Work on AGATTTGAAG yielded a switch fluorescence ratio of 0.978. With AGATTTTAAG the switch fluorescence ratio was 0.976. In the case of AGATTTTCTC, the switch fluorescence ratio is reported as 1.07. With AGCAAAAGGC the switch fluorescence ratio was 1.05. For AGCAACGAAC, the switch fluorescence ratio was 1.78. Sequence AGCAACTTTC has a switch fluorescence ratio of 1.24. With AGCAATATAG the switch fluorescence ratio was 2.13. AGCAATTTCA showed a switch fluorescence ratio of 1.33. AGCACAGGCA showed a switch fluorescence ratio of 1.06. AGCACGCGGG showed a switch fluorescence ratio of 0.974. Sequence AGCACTCCTG has a switch fluorescence ratio of 1.05. With AGCACTTCGT the switch fluorescence ratio was 0.976. AGCAGCAAGC showed a switch fluorescence ratio of 1.44. Work on AGCAGCACAT yielded a switch fluorescence ratio of 1.15. Sequence AGCAGCAGAG has a switch fluorescence ratio of 1. AGCAGCAGAT was tested, and the switch fluorescence ratio was 1.07. For AGCAGCGCTA, the switch fluorescence ratio was 1.06. Sequence AGCAGCTTCT has a switch fluorescence ratio of 0.995. For AGCAGGAGGC, the switch fluorescence ratio was 1.05. Sequence AGCAGGCGGC has a switch fluorescence ratio of 1.04. AGCAGGGCAG was tested, and the switch fluorescence ratio was 1. Work on AGCAGGGGAG yielded a switch fluorescence ratio of 0.993. AGCAGTGACG gave a switch fluorescence ratio of 1.01. In the case of AGCATAAGAT, the switch fluorescence ratio is reported as 0.967. AGCATATTCG gave a switch fluorescence ratio of 1.05. AGCATGAGGC showed a switch fluorescence ratio of 0.964. AGCATGCGCC showed a switch fluorescence ratio of 1.08. In the case of AGCATGGCGC, the switch fluorescence ratio is reported as 1.02. With AGCATGGGA the switch fluorescence ratio was 1.02. Work on AGCATTTAAC yielded a switch fluorescence ratio of 1.38. AGCATTTTG was tested, and the switch fluorescence ratio was 1.02. AGCCAAAGA showed a switch fluorescence ratio of 0.941. AGCCAATTAG showed a switch fluorescence ratio of 1.03. Work on AGCCACCAAT yielded a switch fluorescence ratio of 1.03. AGCCACCACT was tested, and the switch fluorescence ratio was 1.01. Work on AGCCAGAACG yielded a switch fluorescence ratio of 1.02. For AGCCAGTAT, the switch fluorescence ratio was 1.03. With AGCCATTCTT the switch fluorescence ratio was 1.03. For AGCCCACCCC, the switch fluorescence ratio was 1.2. In the case of AGCCCGGATG, the switch fluorescence ratio is reported as 1.01. Sequence AGCCCGGTGA has a switch fluorescence ratio of 1.48. In the case of AGCCCGTGAC, the switch fluorescence ratio is reported as 1.08. In the case of AGCCCGTGTA, the switch fluorescence ratio is reported as 0.991. Sequence AGCCCTATTC has a switch fluorescence ratio of 0.966. With AGCCGATTAA the switch fluorescence ratio was 0.971. Sequence AGCCGGAGTT has a switch fluorescence ratio of 1.03.
